Measurements: paper PMC4321167
Results are given in words; binding and its absence hold for the method and conditions named. Some entries that bind do so weakly or less than the wild type. For some of these results: Sequences can lack the tags named with a protein.

The chains behind the UniProt entries cited, without tags or fusion partners.
UniProt Q84JK2: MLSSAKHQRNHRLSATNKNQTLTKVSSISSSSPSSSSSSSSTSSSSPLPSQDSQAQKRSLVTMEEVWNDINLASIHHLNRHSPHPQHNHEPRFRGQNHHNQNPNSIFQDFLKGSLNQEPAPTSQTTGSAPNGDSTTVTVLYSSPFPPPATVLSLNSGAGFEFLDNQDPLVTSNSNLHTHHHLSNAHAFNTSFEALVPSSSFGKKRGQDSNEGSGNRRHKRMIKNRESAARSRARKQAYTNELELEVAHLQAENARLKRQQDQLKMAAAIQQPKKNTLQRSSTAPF
UniProt Q9C6P3: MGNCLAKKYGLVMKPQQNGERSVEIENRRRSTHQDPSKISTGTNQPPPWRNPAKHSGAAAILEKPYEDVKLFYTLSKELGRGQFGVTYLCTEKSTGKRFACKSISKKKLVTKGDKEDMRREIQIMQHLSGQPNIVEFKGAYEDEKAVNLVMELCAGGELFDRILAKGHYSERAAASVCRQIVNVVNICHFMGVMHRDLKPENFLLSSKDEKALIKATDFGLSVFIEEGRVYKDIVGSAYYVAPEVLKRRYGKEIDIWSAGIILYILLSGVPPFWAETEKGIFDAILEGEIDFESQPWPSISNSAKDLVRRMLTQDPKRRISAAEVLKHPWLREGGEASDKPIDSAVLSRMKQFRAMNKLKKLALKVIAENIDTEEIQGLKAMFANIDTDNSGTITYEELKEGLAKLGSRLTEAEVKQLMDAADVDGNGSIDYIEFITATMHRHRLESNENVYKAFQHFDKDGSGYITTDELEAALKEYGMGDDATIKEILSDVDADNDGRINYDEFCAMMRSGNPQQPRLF

Key:
GST-FD (Arabidopsis) [1] = target: GST-FD (Arabidopsis) (UniProt Q84JK2); assay: pull-down; GST-tagged bait on glutathione sepharose 4B resin, 5 μg purified Trx-His-CPK in 400 μl pull-down buffer (25 mM HEPES-KOH pH 7.5, 100 mM NaCl, 1 mM EGTA, 1 mM DTT, 0.1% NP-40), 2 h at 4°C; immunoblot with anti-His antibody; both purified
[2] = target: T1, GST-FDP (FD PARALOG) (Arabidopsis) (UniProt Q7PCC6); assay: as above
T1 sequence: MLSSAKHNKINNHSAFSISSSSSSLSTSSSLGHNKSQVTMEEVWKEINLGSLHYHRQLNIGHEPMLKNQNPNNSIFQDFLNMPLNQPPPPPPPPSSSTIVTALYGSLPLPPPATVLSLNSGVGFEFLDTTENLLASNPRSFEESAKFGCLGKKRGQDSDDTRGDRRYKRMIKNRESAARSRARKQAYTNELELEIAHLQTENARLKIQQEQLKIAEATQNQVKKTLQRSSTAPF

GST-FD (Arabidopsis) [3] = target: GST-FD (Arabidopsis) (UniProt Q84JK2); assay: pull-down; GST-tagged bait on glutathione sepharose 4B resin, 5 μg purified Trx-His-CPK in 400 μl pull-down buffer plus (25 mM HEPES-KOH pH 7.5, 100 mM NaCl, 1 mM CaCl2, 1 mM DTT, 0.1% NP-40), 2 h at 4°C; immunoblot with anti-His antibody; both purified
[4] = target: T1, GST-FDP (FD PARALOG) (Arabidopsis); assay: as above

Measured: binding

Trx-His-CPK33 (from UniProt Q9C6P3 1-521) (enzyme)
binds: all assays above
